Source: the supplement of paper PMC3334620
Whole data set: some 33,000 sequences, median “E-score (-0.5 to 0.5)” near -0.056, cut for the highest 2% near 0.38. The list shows a part of the results.

target: Stb4 (UniProt P50104); assay: PBM E-score (8-mer binding enrichment) (E-score (-0.5 to 0.5)); higher = stronger / more preferred TF binding; most listed sequences are background and not binding sites; conditions: protein concentration: 200 nM; construct: GST-DNA-binding domain
Method in brief: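 The E-score, a modified Wilcoxon-Mann-Whitney statistic, was computed by the Universal PBM Analysis Suite for every ungapped eight-base word pooled with its reverse complement. Scans behind it were normalised with masliner after bound GST-tagged yeast transcription factors were detected with fluorescent anti-GST. The proteins, at about 100-200 nM, had been applied to universal all-10-mer Agilent arrays made double-stranded by primer extension.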

Row | Sequence | PBM E-score
1 | AGGACGAC | -0.151
2 | GTTGATGA | -0.134
3 | ACTCATGA | -0.138
4 | TATATAAA | -0.023
5 | ACCTCACC | -0.0803
6 | CATTCTCA | 0.0317
7 | AACAGTAG | -0.0759
8 | CGCCCCTA | 0.101
9 | CGGACTGA | 0.132
10 | GTAACACA | 0.0469
11 | CGTACTGA | -0.0158
12 | CAAGAGAA | 0.0429
13 | ACGACGTC | -0.148
14 | CGATCGGC | 0.273
15 | GGACTAAA | 0.0483
16 | AAAGTCGC | 0.0621
17 | AATCAGAG | -0.105
18 | ATCTATCG | -0.0843
19 | ATTTTCTG | -0.0503
20 | AAGCCCCA | -0.168
21 | ACGGAGCT | 0.0791
22 | AGCAAGTC | -0.169
23 | ATAACTGC | -0.044
24 | CGGCTTTA | 0.264
25 | GCCCCGCA | 0.0354

Row | Sequence | PBM E-score
26 | ACAGCACA | -0.0101
27 | AACTAACG | 0.0873
28 | ACCTGTCT | -0.197
29 | ACTTAGCT | -0.251
30 | ATCTGTAA | 0.0162
31 | CAATTGAG | 0.0305
32 | CTGCTTGC | 0.0358
33 | GCCTAGGA | -0.259
34 | ACACCCCG | 0.147
35 | ATGGGCAG | -0.152
36 | CCCGAAGA | 0.403
37 | CCAAACGA | -0.122
38 | TACGGCCA | -0.0705
39 | GCGAGAAC | -0.021
40 | AGTCGACC | 0.0176
41 | GCATCCGA | 0.466
42 | ACGCTCGA | -0.198
43 | GCTGCGCA | -0.0627
44 | AGTTGTAG | -0.148
45 | ACAAGGGA | -0.171
46 | GCTAAGTA | -0.148
47 | CCTTTGCA | -0.208
48 | AGCGGCCT | -0.0959
49 | AGCTGACA | 0.0342
50 | CCGTATTC | 0.145

Row | Sequence | PBM E-score
51 | ACCGCACA | -0.0505
52 | AAAGGCTA | -0.279
53 | ACCTATTC | 0.0631
54 | AAATCGGA | 0.399
55 | GTCATTGA | -0.0705
56 | GATTCTAA | -0.0969
57 | AAGTCCGG | 0.249
58 | AGTAAGAG | -0.341
59 | TAAACTGA | -0.0433
60 | CACACCGC | 0.0128
61 | AACATAGG | -0.087
62 | GCGTCACA | -0.168
63 | ACGTCGGC | 0.307
64 | CCTCCAAA | -0.211
65 | CAGTAACC | -0.0265
66 | ATTCCCCA | -0.258
67 | GGTTATCA | -0.00023
68 | CTTCTGGC | -0.255
69 | AACTTTGT | 0.0155
70 | CACGGGCA | 0.00697
71 | GTGGTGAA | 0.0732
72 | TGCAACCA | -0.28
73 | CCTGGACA | -0.099
74 | CTGCACCA | -0.0962
75 | CCAGGCAA | -0.106

Row | Sequence | PBM E-score
76 | CCTAGTAC | -0.116
77 | AGCGAGAC | -0.0354
78 | CTTTTGTA | -0.0656
79 | ACGACGGG | 0.063
80 | CTCATGCC | 0.0136
81 | AGAGGTCA | -0.114
82 | CGCCGTGA | -0.00728
83 | CACGGGGC | -0.0507
84 | ATATAATA | 0.0538
85 | CACGCGTC | 0.0968
86 | GGGTAACA | 0.106
87 | CGCCATGC | -0.00401
88 | ATCACTTC | -0.00153
89 | CCCTTAAC | -0.182
90 | AGACCCTC | -0.0823
91 | CGCCTTAA | 0.0429
92 | CGTGGAAG | 0.0899
93 | GGGGGACA | -0.00324
94 | GGACCTAA | 0.138
95 | CATTCACG | -0.0575
96 | GGTGTGGA | -0.00858
97 | GCTCTGCC | -0.0979
98 | CCCTAGCA | -0.245
99 | GGTTTGCA | -0.0305
100 | AGCTTGGG | 0.0591

Row | Sequence | PBM E-score
101 | CGACGAAG | 0.123
102 | GTGTAGAA | -0.201
103 | CTATAGAC | -0.172
104 | ACTACCTA | -0.0673
105 | GAAATGAA | 0.0812
106 | CAGAATGA | -0.0945
107 | ATCCTTGC | -0.134
108 | AACCATTG | -0.152
109 | CCAAAGCA | -0.15
110 | AATTACCC | 0.269
111 | CCAGAACC | -0.13
112 | TGGCTCAA | -0.214
113 | AATCTGAT | 0.026
114 | CCTCTTAC | -0.274
115 | CGTTCAAA | 0.093
116 | CATTGCGA | -0.0487
117 | AGTTCCTG | -0.14
118 | CATTGAGA | -0.147
119 | GGATTCCC | 0.102
120 | GGGTTAAC | 0.211
121 | CAGCGTCA | -0.229
122 | CCAGGTCA | -0.289
123 | AGCAAACA | -0.0803
124 | CACACAGG | -0.241
125 | AAATCGTA | -0.152

Row | Sequence | PBM E-score
126 | GTGTGTGA | -0.0455
127 | ATGGCAAC | 0.0359
128 | GAATGGTA | -0.0914
129 | GTTCTTCA | -0.0896
130 | ACCAGTTA | -0.0978
131 | CGCTGTCA | -0.164
132 | CCGTTTAA | 0.084
133 | AGTGTCTC | -0.0391
134 | AATCCTCG | 0.0613
135 | GATGTTGC | 0.0623
136 | ACAGACTC | -0.115
137 | ATATGGCA | -0.173
138 | CACCCACG | 0.0694
139 | GCTGCCAA | -0.0827
140 | CAGGGTCG | 0.149
141 | AAAGATCC | 0.166
142 | AGGTTCCG | 0.383
143 | CTCTTTTA | -0.283
144 | TGCACAAA | -0.209
145 | AGCCATAC | -0.279
146 | CCCGGATC | 0.385
147 | CACTGCAC | -0.177
148 | AGTTCTTG | -0.0743
149 | AAGATCGT | -0.19
150 | ATGGTAAA | 0.102

Row | Sequence | PBM E-score
151 | CGGAATAA | 0.384
152 | CTTTTTAC | 0.0351
153 | CGGTCTAG | -0.0679
154 | GGAGGGCA | -0.0606
155 | CAATTTCA | -0.179
156 | AAAATACG | 0.0442
157 | GACTCTAC | -0.197
158 | CAGTACTG | -0.158
159 | ATGGATGC | -0.153
160 | ATTAACCG | 0.413
161 | TACTGGAA | -0.0722
162 | AAGGGGGG | -0.234
163 | ACTAGGGC | -0.201
164 | ATCCAAAG | -0.22
165 | CGCCGCCG | 0.249
166 | CACAGCGC | -0.0634
167 | GTCCTAAC | -0.16
168 | CAATCGTA | -0.191
169 | ACTTCCCC | -0.111
170 | TTCGACAA | -0.243
171 | ACGTGCAT | -0.301
172 | CTAGCACA | -0.0883
